In patent publication US11178870B2 (priority 2017, dated 2021):

Assays:
[1] = test system: Magnaporthe grisea; assay type: in vivo; settings: Table 7, Test A
[2] = test system: Phytophthora infestans; assay type: in vivo; settings: Table 7, Test F
[3] = test system: Colletotrichum orbiculare; settings: 250 ppm sprayed (2.5 ml/pot) before inoculation; assessed 6 to 10 days after inoculation

| Compound | control value, Test A (blast on rice) [1] | control value, Test F (late blight on tomato) [2] | control value, Test H (anthracnose on cucumber) [3] |
| --- | --- | --- | --- |
| CCn1c(-c2c(F)cc(F)cc2F)c(-n2cc(F)cn2)cc(Br)c1=O [Compound 194] | H (H shows the control value more than 50%) | L (L shows the control value of 50% or less) | H (H shows the control value more than 50%) |
| O=c1ccc(-n2cc(Cl)cn2)c(-c2ccccc2Br)n1CC(F)F [Compound 289] | L (L shows the control value of 50% or less) | L (L shows the control value of 50% or less) | L (L shows the control value of 50% or less) |
| CCn1c(-c2ccccc2Br)c(-n2cc(Cl)cn2)cc(Br)c1=O [Compound 196] | H (H shows the control value more than 50%) | L (L shows the control value of 50% or less) | L (L shows the control value of 50% or less) |
| CCn1c(-c2ccc(F)cc2Br)c(-n2cc(F)cn2)ccc1=O [Compound 326] | H (H shows the control value more than 50%) | L (L shows the control value of 50% or less) | H (H shows the control value more than 50%) |
| Cc1cnn(-c2cc(Cl)c(=O)n(CC(F)F)c2-c2ccc(F)cc2Cl)c1Cl [Compound 343] | H (H shows the control value more than 50%) | – | – |
| O=c1c(Br)cc(-n2cc(Cl)cn2)c(-c2ccc(F)cc2Cl)n1CC(F)F [Compound 235] | H (H shows the control value more than 50%) | L (L shows the control value of 50% or less) | L (L shows the control value of 50% or less) |
| CCn1c(-c2ccccc2F)c(-n2ncc(C)c2Cl)cc(Cl)c1=O [Compound 263] | H (H shows the control value more than 50%) | L (L shows the control value of 50% or less) | H (H shows the control value more than 50%) |
| CCn1c(-c2ccccc2Br)c(-n2ncc(C)c2Cl)cc(Br)c1=O [Compound 271] | H (H shows the control value more than 50%) | L (L shows the control value of 50% or less) | H (H shows the control value more than 50%) |
| CCn1c(-c2ccccc2OC)c(-n2cc(Cl)cn2)cc(Cl)c1=O [Compound 243] | L (L shows the control value of 50% or less) | L (L shows the control value of 50% or less) | L (L shows the control value of 50% or less) |
| CCn1c(-c2ccc(C#N)cc2F)c(-n2cc(Cl)cn2)cc(Cl)c1=O [Compound 279] | H (H shows the control value more than 50%) | L (L shows the control value of 50% or less) | H (H shows the control value more than 50%) |
| CCn1c(-c2c(F)cc(OC)cc2F)c(-n2cc(Cl)cn2)ccc1=O [Compound 238] | H (H shows the control value more than 50%) | L (L shows the control value of 50% or less) | H (H shows the control value more than 50%) |
| CCn1c(-c2ccccc2[N+](=O)[O-])c(-n2cc(Cl)cn2)cc(Cl)c1=O [Compound 258] | L (L shows the control value of 50% or less) | L (L shows the control value of 50% or less) | L (L shows the control value of 50% or less) |
| CCc1ccccc1-c1c(-n2ncc(C)c2Cl)cc(Br)c(=O)n1CC [Compound 322] | L (L shows the control value of 50% or less) | L (L shows the control value of 50% or less) | L (L shows the control value of 50% or less) |
| O=c1c(Cl)cc(-n2cc(Cl)cn2)c(-c2ccc(F)cc2Br)n1CC(F)F [Compound 274] | H (H shows the control value more than 50%) | L (L shows the control value of 50% or less) | L (L shows the control value of 50% or less) |
| CCn1c(-c2ccccc2OC)c(-n2cc(C)cn2)ccc1=O [Compound 246] | L (L shows the control value of 50% or less) | L (L shows the control value of 50% or less) | H (H shows the control value more than 50%) |
| CCOc1cc(F)c(-c2c(-n3cc(Cl)cn3)cc(Cl)c(=O)n2CC)c(F)c1 [Compound 200] | H (H shows the control value more than 50%) | L (L shows the control value of 50% or less) | H (H shows the control value more than 50%) |
